From PubChem BioAssay AID743279 (National Center for Advancing Translational Sciences (NCATS), 2014)
In all, about 360,000 compounds went through this assay and about 17,000 (4.7%) were called active. Inconclusive means that the source gave no clear call. Such entries were picked first, then a sample of the others. Cut-off read from the data, not from the text of the source: active = activity change below about -50%; inconclusive = mostly about -30% to -49%; inactive = weaker than that.

Experiment: qHTS for Inhibitors of Inflammasome Signaling: IL-1-beta AlphaLISA Primary Screen
Details: THP-1 LPS/ATP IL-1B secretion, 16 h; at 57.5 µM, hits give low values
Method in brief: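 Secreted IL-1B measured by AlphaLISA bead assay after 16 h compound exposure of THP-1 cells; compounds (final up to 57.5 uM) added 1 h before LPS (250 ng/mL) and ATP (1.25 mM) stimulation; lower signal means less secretion.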
% is set by controls: 0 for no effect and ±100 for the full control effect.

SMILES | activity change
CCn1c(C)c(C(C)=O)c(N2CCN(C(c3ccccc3)c3ccccc3)CC2)nc1=S | active: -185%
COC(=O)/C=C/c1ccc(OC(=O)OC)c(OC(=O)OC)c1 | inactive: 14.8%
O=C(COc1ccc2c3c(c(=O)oc2c1)CCC3)N1CCN(c2ccccc2)CC1 | inconclusive: -30.4%
COc1ccccc1CNC(=O)CC1Sc2ccccc2NC1=O (configuration not stated) | inactive: 11.2%
CCN(CC)CCNc1ccc(Cl)cc1[N+](=O)[O-] | inconclusive: -31.7%
COc1ccccc1NC(=O)c1cc2n(n1)C(C(F)(F)F)CC(c1ccc3c(c1)OCO3)N2 (configuration not stated) | inconclusive: -47.4%
CCCCn1c(=O)[nH]c(=O)c2c(C(=O)OCC)cc(-c3ccc(OC(F)F)cc3)nc21 | inactive: 15.7%
Cc1ccc2c(N)c(C(=O)c3ccccc3)sc2n1 | active: -69.1%
CC(C)(C)c1csc(NC(=O)CSC2=NCCS2)n1 | inconclusive: -34.3%
CCN(CC)CCOc1c(Br)ccc2c1sc1nc3n(c(=O)c12)CCC3 | active: -63.8%
CN(C(=O)c1nn(C)c2c1CSc1ccccc1-2)c1ccc(F)cc1 | inactive: 0.253%
Cc1ccc(NC(=O)CN(C)C2CCCCC2)cc1Cl | inconclusive: -40.3%
COc1cccc(/C=C/c2nc(C#N)c(NCC(C)C)o2)c1 | inconclusive: -31.6%
COc1ccc(S(=O)(=O)N(C)C[C@@H]2Oc3cc(Br)ccc3S(=O)(=O)N([C@H](C)CO)C[C@@H]2C)cc1 | inactive: -20%
CCc1ccc(NS(=O)(=O)c2ccc(OC)c(C)c2)cc1 | inactive: 6.31%
COc1ccc(-c2c(NC(=O)c3ccco3)oc3ccc(Cl)cc3c2=O)cc1 | inconclusive: -32.5%
COc1cccc(CN2CCN(Cc3[nH]c4ccccc4c3C)CC2CCO)c1 (configuration not stated) | active: -78.3%
O=C(Nc1cccc(Cl)c1)Nc1ccc2nccnc2c1 | inconclusive: -33.8%
CC(C)CCSc1nc(N)c(C#N)cc1C#N | inconclusive: -35.3%
O=S(=O)(c1cnc(Cl)c(Cl)c1)N1CCc2ccccc21 | active: -64.6%
Cc1ccc(NC(=O)C2CCN(C(=O)NCc3ccccc3)CC2)cc1C | inactive: 16.8%

SMILES | activity change
O=C(Nc1ccccc1)c1ccc(NCc2cccnc2)c(S(=O)(=O)N2CCOCC2)c1 | inactive: -9.48%
CCOc1ccc(C(C(=O)NCC2CCCO2)N(C(=O)c2snc(C(N)=O)c2N)c2ccc(F)cc2)cc1 (configuration not stated) | inconclusive: -37.9%
Cc1ccc(C(=O)Nc2cccc(C(=O)NC3CCCC3)c2)cc1 | inactive: -10.2%
CC(Sc1nc2ccccc2[nH]1)C(=O)Nc1ccccc1F (configuration not stated) | inconclusive: -35.8%
CCN(CC)C(=O)[C@H]1C[C@H](CC(=O)NCCC2=CCCCC2)C(=O)N2CCc3c([nH]c4ccc(Cl)cc34)[C@]12C | active: -54.1%
COc1cc(CN=Cc2c(O)n(Cc3ccccc3)c(=S)[nH]c2=O)cc(OC)c1 | inactive: 17.8%
CC(C)Cn1c2c(c(O)c(C(=O)Nc3nc4ccccc4s3)c1=O)CCCC2 | inactive: 15.3%
CCN(CC)S(=O)(=O)c1cccc(C(=O)OCC(=O)c2ccc3c(c2)NC(=O)CO3)c1 | inconclusive: -47.6%
O=C(CCl)Nc1cc(S(=O)(=O)N2CCCCCC2)ccc1Cl | active: -101%
COc1cc(C(=O)NC2CCCC2)c(Br)c(OC)c1OC | inactive: 7.98%
O=C(O)c1cc(NS(=O)(=O)c2ccc(N3CCCCC3)c([N+](=O)[O-])c2)cc(C(=O)O)c1 | inactive: -6.43%
CC1CCc2sc(C(=O)Nc3ccc(N4CCOCC4)cc3)cc2C1 (configuration not stated) | inconclusive: -30.3%
O=C(c1cc(C2CC2)nn1-c1ccccc1)N1CCN(Cc2ccccc2F)CC1 | inconclusive: -37.4%
CCCNC1=C(N(C(C)=O)c2cccc(F)c2)C(=O)c2ccccc2C1=O | active: -84.5%
COc1ccc(-c2nc3cccc(C)n3c2NCC2CCCO2)cc1O (configuration not stated) | inconclusive: -37.2%
CCOCCN1CCN(c2c(C)c(C)nc3cc(-c4cc(OC)cc(OC)c4)nn23)CC1 | inconclusive: -38.6%
COc1cccc(C(=O)NCC2(c3ccc(OC)c(OC)c3)CCCC2)c1 | inconclusive: -35.6%
C[C@]12c3[nH]c4cc(-c5ccco5)ccc4c3CCN1C(=O)[C@@H](CC(=O)NCCC1=CCCCC1)C[C@@H]2C(=O)N1CCCCC1 | inconclusive: -49%
CCCCN(C)CCNC(=O)CN1C(=O)CSc2ccc(S(=O)(=O)N3CCCCC3)cc21 | inconclusive: -32.6%
COc1cccc(C(=O)Nc2ccc3ccccc3c2)c1 | inconclusive: -46.5%
Cc1cn(CC(=O)NCc2ccc3c(c2)OCO3)c(=O)[nH]c1=O | inactive: -7.03%
